Measurements published in patent US20230364057A1, “BACTERIAL DNA GYRASE INHIBITORS AND METHODS OF USE THEREOF” (THE FLORIDA INTERNATIONAL UNIVERSITY BOARD OF TRUSTEES, priority 2022, published 2023).

Biological target: human DNA topoisomerase IIα (Homo sapiens (Human), UniProt P11388)
Assay: Agarose gel-based inhibition assay against human DNA topoisomerase IIα
Procedure: The standard deviations are calculated according to three independent experiments. (B) Agarose gel-based gyrase inhibition assays for compound 154. […] Lanes 1 and 2 are relaxed and supercoiled plasmid pAB1, respectively. (C) Gyrase-mediated DNA cleavage assays were performed as described in Methods using plasmid pBR322. […] Lanes 2-5 contain 10, 50, 100, 150, and 200 µM of compound 154, respectively. […] . (D) Agarose gel-based inhibition assays against human DNA topoisomerase 2α for compound 154. Lanes 3-6 correspond to 0, 25, 50, and 100 µM of the compound, respectively. Lanes 1 and 2 are relaxed and supercoiled plasmid pAB1, respectively. (E) Human DNA topoisomerase 2α-mediated DNA cleavage assays were performed as described in Materials and Methods using plasmid pBR322. […] Lanes 1-3 contain 50, 100, and 200 µM of compound 154, respectively. Lane 4 contain 100 µM of etoposide (ETP). Lanes 5 and 6 contain DNA samples from the assay mixtures in the absence of etoposide and human DNA topoisomerase 2a, respectively. Symbols Rx, Sc, Nk, and Ln represent relaxed, supercoiled, nicked, and linear DNA, respectively. (F) Compound 154 is a gyrase poison that inhibits E. coli DNA gyrase and Topoisomerase IV. (G) and (H) show molecular models of compound 154 binding to gyrase-DNA complexes. […]
The standard deviations are calculated according to three independent experiments. […]

Chain of human DNA topoisomerase IIα (P11388 whole entry): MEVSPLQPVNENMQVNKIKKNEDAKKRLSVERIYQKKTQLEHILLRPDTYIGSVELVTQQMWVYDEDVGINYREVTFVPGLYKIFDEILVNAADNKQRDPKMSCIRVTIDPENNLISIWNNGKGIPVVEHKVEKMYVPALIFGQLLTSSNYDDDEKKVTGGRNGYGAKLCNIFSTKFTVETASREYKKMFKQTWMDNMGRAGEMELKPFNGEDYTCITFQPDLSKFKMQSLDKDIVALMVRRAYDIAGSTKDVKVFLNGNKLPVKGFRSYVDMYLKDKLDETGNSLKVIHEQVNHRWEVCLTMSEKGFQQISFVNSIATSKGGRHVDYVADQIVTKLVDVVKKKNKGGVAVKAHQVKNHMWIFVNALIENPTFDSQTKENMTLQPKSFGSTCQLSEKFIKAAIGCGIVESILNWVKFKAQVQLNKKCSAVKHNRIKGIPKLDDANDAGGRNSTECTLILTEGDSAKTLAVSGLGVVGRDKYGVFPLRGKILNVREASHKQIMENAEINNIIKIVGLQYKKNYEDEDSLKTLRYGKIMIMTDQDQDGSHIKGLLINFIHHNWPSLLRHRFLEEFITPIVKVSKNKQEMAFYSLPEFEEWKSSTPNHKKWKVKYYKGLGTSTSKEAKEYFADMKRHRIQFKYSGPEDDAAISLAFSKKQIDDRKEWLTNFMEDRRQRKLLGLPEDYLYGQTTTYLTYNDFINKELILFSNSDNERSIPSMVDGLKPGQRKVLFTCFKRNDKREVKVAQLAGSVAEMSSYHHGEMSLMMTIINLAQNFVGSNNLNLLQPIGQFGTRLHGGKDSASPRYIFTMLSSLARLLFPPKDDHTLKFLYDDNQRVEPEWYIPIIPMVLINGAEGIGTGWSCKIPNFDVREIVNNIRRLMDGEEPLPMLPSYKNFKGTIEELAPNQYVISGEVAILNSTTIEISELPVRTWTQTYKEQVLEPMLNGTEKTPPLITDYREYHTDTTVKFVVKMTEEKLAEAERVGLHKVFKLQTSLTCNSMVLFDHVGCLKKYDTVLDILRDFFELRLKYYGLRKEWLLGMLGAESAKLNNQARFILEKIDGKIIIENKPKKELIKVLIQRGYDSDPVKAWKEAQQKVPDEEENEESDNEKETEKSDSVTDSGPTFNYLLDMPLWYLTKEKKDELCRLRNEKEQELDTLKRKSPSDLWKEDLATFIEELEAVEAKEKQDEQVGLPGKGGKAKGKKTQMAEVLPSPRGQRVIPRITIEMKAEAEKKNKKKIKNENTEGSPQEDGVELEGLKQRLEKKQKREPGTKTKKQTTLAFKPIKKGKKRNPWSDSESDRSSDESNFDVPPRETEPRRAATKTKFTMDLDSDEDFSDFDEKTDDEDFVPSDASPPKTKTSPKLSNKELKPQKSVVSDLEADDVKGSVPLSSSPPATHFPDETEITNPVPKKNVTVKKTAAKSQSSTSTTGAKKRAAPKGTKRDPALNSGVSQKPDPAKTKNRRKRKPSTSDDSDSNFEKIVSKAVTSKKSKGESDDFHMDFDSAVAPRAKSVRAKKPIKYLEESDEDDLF

Structure (SMILES)	selectivity index (Mtb gyrase over human TopoIIα)
Cc1c(CCC(=O)O)c(=O)oc2c(C)c3occ(-c4ccc(-c5ccccc5)cc4)c3cc12 [Compound 119]	8.3
Cc1c(CCC(=O)O)c(=O)oc2c(C)c3occ(-c4ccc5ccccc5c4)c3cc12 [Compound 124]	39
